Measurements reported in article PMC4336329 (PLoS ONE, 2015).
Out of some 310,000 compounds screened, about 2,200 (0.71%) showed an effect of 50% or more. Effects have a minus sign here. The list shows a part of the results.

molecular target: human ether-à-go-go-related gene (hERG) potassium channel (human, UniProt Q12809); assay: primary screen, population patch clamp on CHO cells stably expressing hERG
Sequence (Q12809 whole entry, looked up): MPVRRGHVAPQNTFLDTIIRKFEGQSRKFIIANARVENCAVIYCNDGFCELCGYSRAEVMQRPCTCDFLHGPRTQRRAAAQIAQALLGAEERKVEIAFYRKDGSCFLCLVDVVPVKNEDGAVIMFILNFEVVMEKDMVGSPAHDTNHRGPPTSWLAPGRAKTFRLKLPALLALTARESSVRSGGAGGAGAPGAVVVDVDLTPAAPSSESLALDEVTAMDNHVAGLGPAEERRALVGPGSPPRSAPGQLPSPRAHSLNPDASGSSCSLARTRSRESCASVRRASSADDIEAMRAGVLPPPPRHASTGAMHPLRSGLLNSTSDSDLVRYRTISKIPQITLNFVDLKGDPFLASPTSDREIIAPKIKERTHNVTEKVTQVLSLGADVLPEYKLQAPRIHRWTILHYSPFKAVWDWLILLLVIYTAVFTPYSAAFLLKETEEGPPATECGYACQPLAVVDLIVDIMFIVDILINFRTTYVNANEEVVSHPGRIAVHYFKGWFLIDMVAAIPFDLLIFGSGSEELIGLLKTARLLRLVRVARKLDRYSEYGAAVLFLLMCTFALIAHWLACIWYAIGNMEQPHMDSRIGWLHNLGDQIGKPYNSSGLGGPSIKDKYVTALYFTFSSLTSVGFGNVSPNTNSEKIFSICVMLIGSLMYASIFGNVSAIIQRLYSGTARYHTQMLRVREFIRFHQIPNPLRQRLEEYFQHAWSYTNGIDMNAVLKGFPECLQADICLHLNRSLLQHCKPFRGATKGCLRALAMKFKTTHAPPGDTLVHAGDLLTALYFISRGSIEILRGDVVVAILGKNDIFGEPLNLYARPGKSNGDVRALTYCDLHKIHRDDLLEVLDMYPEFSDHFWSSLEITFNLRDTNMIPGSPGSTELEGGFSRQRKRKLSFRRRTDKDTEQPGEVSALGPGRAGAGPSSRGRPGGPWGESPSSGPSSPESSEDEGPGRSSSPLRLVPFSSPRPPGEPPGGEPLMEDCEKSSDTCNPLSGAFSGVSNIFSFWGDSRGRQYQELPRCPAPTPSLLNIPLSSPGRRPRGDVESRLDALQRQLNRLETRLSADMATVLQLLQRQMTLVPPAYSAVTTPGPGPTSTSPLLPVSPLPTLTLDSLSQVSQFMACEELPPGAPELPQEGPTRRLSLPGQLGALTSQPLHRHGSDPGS

Row | Structure (SMILES) | hERG current change (%, negative = inhibition) at 1uM [%]
1 | CCOC(=O)C[C@H]1c2cc(C(F)(F)F)ccc2S(=O)(=O)N1Cc1ccccc1 | 4.32
2 | OCCC1CN(Cc2nc3c(s2)CCCC3)CCN1CCc1ccccc1 (stereo not shown) | -10.6
3 | CCOC(=O)/C(N=Nc1ccc(C(=O)O)cc1[N+](=O)[O-])=C(\C)O | 21.6
4 | O=C1CCN2C=Nc3cccc4ccc1c2c34 | 8.64
5 | O=C(Nc1cccc(Cl)c1)c1cc(S(=O)(=O)N2CCCCC2)c[nH]1 | -13
6 | CCCN1CCC(NC(=O)Cc2ccccc2C)CC1 | 20.6
7 | COc1ccc(CNC(=O)c2cc(S(=O)(=O)N3CCOCC3)cn2C)cc1 | 10.8
8 | CCOc1c(Cl)cc(C(=O)NCCN2CCCCC2)cc1Cl | -27.8
9 | COc1ccc(-c2nnc(SC(C)C(=O)Nc3nccs3)n2Cc2ccccc2)cc1OC (stereo not shown) | -4.34
10 | C/C(=N\NC(=O)c1cccs1)c1ccncc1 | 28.4
11 | CC(C)NC(=O)C(=O)c1cn(C)c2ccccc12 | 11.6
12 | CCOc1ccc(N(CCCCO)C(=S)NC(=O)c2ccc(C)c(Br)c2)cc1 | 6.96
13 | Cn1ccnc1SCCNC(=O)CCc1nnc(CCCCc2ccccc2)o1 | 7.31
14 | c1ccc2cc(-c3csnn3)ccc2c1 | 18.3
15 | CCC1CN(C(=O)N2CCC(C(=O)NCc3ccccc3C)CC2)c2ccccc2O1 (stereo not shown) | 10.3
16 | Cc1cc(C(=O)OCC(=O)NNC(=O)c2cccs2)ccc1[N+](=O)[O-] | 17.4
17 | CCc1c(C)nc2ncnn2c1N1CCCC(C(=O)Nc2cc(F)ccc2C)C1 (stereo not shown) | -5.51
18 | Cc1cccc(NC(=O)Cn2cc(C(=O)C3CC3)c3ccccc32)c1 | 10.2
19 | Cc1nc(CN2CCCC2=NC#N)n(-c2ccccc2)n1 | 11.2
20 | O=C(CN1C(=O)NC2NC(=O)NC21)NN=C1CCCC1 (stereo not shown) | 10.2
21 | O=C1OCCC1Sc1nnc(-c2cccnc2)n1-c1ccccc1F (stereo not shown) | 8.32
22 | COc1cc(OC)c(OC)cc1/C=N/NC(=O)c1ccc(CSc2nc(C)cc(C)n2)cc1 | 5.83

Row | Structure (SMILES) | hERG current change (%, negative = inhibition) at 1uM [%]
23 | O=C(CS(=O)(=O)c1cn(CC(=O)N2CCOCC2)c2ccccc12)NCc1ccc(F)cc1 | 16.5
24 | COc1ccc(CCNC(=O)COC(=O)c2cnc(C)cn2)cc1 | 11.9
25 | O=C(C1CCCCC1)N1CCC(O)(c2ccc(Cl)cc2)CC1 | 14.9
26 | COCCNS(=O)(=O)c1cc(Br)ccc1OC | 8.75
27 | CCOc1ccc(NCC(=O)c2ccc(C)cc2)cc1 | 42.1
28 | Cc1cc(=O)oc2c3c(cc(OCC(=O)NCCC(=O)N[C@@H](C)C(=O)O)c12)OC(C)(C)CC3 | 8.55
29 | Cc1ccc(-c2n[nH]c(=O)c3ccccc23)cc1S(=O)(=O)NCC1CCCO1 (stereo not shown) | 3.31
30 | CCC1=C2CC[C@H]3C(=O)N(c4ccccc4)C(=O)[C@H]3[C@H]2[C@@]2(C)C(=NCC(=O)OC)OC(=O)N2C1=O | 18.3
31 | CC(C)=CCc1c(O)c(CC=C(C)C)c2c(c1O)-c1cc(O)c(O)cc1CC2 | 12.2
32 | NC(=O)c1cccn1Cc1ccccc1Cl | 7.75
33 | COc1cccc(C(=O)c2c[nH]c(C(=O)NCc3cccnc3)c2)c1 | 4.59
34 | N#Cc1c(SCC(=O)Nc2nc3ccc(Br)cc3s2)sc2c(O)cc(=O)[nH]c12 | 8.19
35 | Cc1ccc(S(=O)(=O)n2[nH]c(=O)cc2N)cc1 | 10.9
36 | Nc1ncnc2c1ncn2[C@@H]1O[C@H](CO)[C@@H](O)[C@@H]1O | 4.08
37 | N#Cc1ccccc1Cn1c(=O)n(Cc2ccc(C(=O)NCc3ccco3)cc2)c(=O)c2sccc21 | 6.68
38 | COc1ccc(C(=O)Nc2ccc(-c3nnn(CC(=O)N4CCN(C(=O)c5ccco5)CC4)n3)cc2)cc1 | 2.14
39 | O=C(CN1C(=O)CC(c2ccccc2)=Nc2ccccc21)NCc1ccccc1 | 13.4
40 | COC(=O)[C@]1(Cc2ccccc2)N[C@H](c2ccc(-c3cc(C(C)=O)cs3)cc2)[C@@H]2C(=O)N(C)C(=O)[C@@H]21.O=C(O)C(F)(F)F | 2
41 | C/C(=N\NC(=O)c1ccc(F)cc1)c1ccc(N2CCOCC2)cc1 | 1.36
42 | O=C(/C=C/c1c(F)cccc1Cl)Nc1ccncc1 | 2.58
43 | CC1CCN(C(=O)C(C)NCc2ccc(F)cc2)CC1.O=C(O)C(=O)O (stereo not shown) | 1.2
